# Data taken from PubChem BioAssay AID1508623 (National Center for Advancing Translational Sciences (NCATS), 2021).
# Hit rate of the full screen: of about 48,000 compounds, about 450 (0.94%) were called active. The shares of active, inactive and inconclusive entries below differ from those in the screen. Calls follow the shape of the dose curve; as a rule, active = well fitted inhibition curve with a large enough effect; inconclusive = small, poorly fitted or top-dose-only effect; inactive = no such curve, though single readings can be large or run the other way. A potency beside an inconclusive call is a rough fit, not a confirmed value.
# Assay: Primary qHTS for Identification of Small Molecule Inhibitors of Huntingtin Promoter Activity; also: nearly all actives have a fitted effect of over 50% in size
# Conditions: HEK293 HTT promoter firefly luciferase reporter (activity 0% = vehicle and -100% = no light), 24 h; series mostly up to 57.5 µM
# Method in brief: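 HEK293 Fluc reporter, 2,500 cells/well, 24 h pre-culture; cpds up to 57.5 uM final, 24 h 37 degrees C; Dual-Glo, 10 min RT; normalized vehicle = 0%, zero RLU = -100%.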
# Potency is read from the fitted curve at half-maximal effect; tags tell the direction and shape of the fitted curve.
row,Structure (SMILES),Potency
1,COc1ccc(NC(=O)c2c(NCc3ccc(C)o3)sc3c2CCC(C)C3)c(OC)c1 (configuration not stated),"inconclusive: 28.2 µM [inhibitor, single point]"
2,O=C(Nc1ccc(Br)cc1)C1CCN(c2cnccn2)CC1,"inconclusive: 35.5 µM [inhibitor, single point]"
3,COc1ccccc1CNC(=O)c1ccc(N2CCCC2)c(NC(=O)NCc2ccccc2)c1,"inconclusive: 20 µM [inhibitor, partial curve]"
4,CCC(C(=O)N1CCN(c2ccccc2)CC1)n1nc(C)n2c(cc3sccc32)c1=O (configuration not stated),"inconclusive: 28.2 µM [inhibitor, single point]"
5,NC(=O)c1cc(S(=O)(=O)N2CCN(c3ccc(F)cc3)CC2)cs1,"inconclusive: 15.8 µM [inhibitor, partial curve, poor fit]"
6,COc1ccc(-c2cnnn2-c2ccc(NC(=O)c3ccc(S(=O)(=O)N(C)C)cc3)cc2)cc1,"inconclusive: 28.2 µM [inhibitor, partial curve, poor fit]"
7,COc1ccc(-c2cnnn2-c2ccc(NC(=O)c3c(F)cccc3F)cc2)cc1,"inconclusive: 39.8 µM [inhibitor, single point]"
8,CCCOc1ccc(-c2nn(-c3ccccc3)cc2C2NC(=O)NC(C)=C2C(=O)OC(C)C)cc1 (configuration not stated),"inconclusive: 39.8 µM [inhibitor, single point]"
9,Cc1ccc(C(=O)NCCn2c(C)cc3ccccc32)cc1C,"inconclusive: 39.8 µM [inhibitor, single point]"
10,COc1cccc(C(=O)NCCSc2c(-c3ccc(F)cc3)[nH]c3ccccc23)c1OC,"inconclusive: 31.6 µM [inhibitor, single point]"
11,O=C1CN(C(=O)c2ccc(S(=O)(=O)N3CCCCC3)cc2)C(c2ccc(F)cc2)c2cc(F)ccc2N1 (configuration not stated),"inconclusive: 35.5 µM [inhibitor, single point]"
12,CC(C)Oc1ccc(CNC(=O)CCCn2c(=O)c3cccn3c3ccccc32)cc1,"inconclusive: 39.8 µM [inhibitor, single point]"
13,Cc1ccc(NCc2cccn2-c2nnc(N3CCC(C(=O)NC(C)C)CC3)s2)cc1,"inconclusive: 39.8 µM [inhibitor, single point]"
14,COc1ccc(CNc2ncnc3onc(C)c23)cc1,"inconclusive: 11.2 µM [inhibitor, partial curve]"
15,COc1ccc(NC(=O)Cn2c(=O)oc3cc(S(=O)(=O)NC4CCCC4)ccc32)cc1OC,"inconclusive: 22.4 µM [inhibitor, partial curve, poor fit]"
16,CCOC(=O)c1c(NC(=O)CS(=O)(=O)c2ccc(C)cc2)sc2c1CCCCC2,"inconclusive: 8.91 µM [inhibitor, full curve]"
17,CCc1ccc(CNC(=O)c2ccc3c(c2)N=C(C)c2cc(C)ccc2S3)cc1,"inconclusive: 20 µM [inhibitor, partial curve, poor fit]"
18,Cc1ccc(C(C)C)c(OCC(=O)Nc2cccc(NC(=O)c3ccco3)c2)c1,"inconclusive: 15.8 µM [inhibitor, partial curve]"
19,Cc1ccc(-c2nc3cccnc3s2)cc1NC(=O)C(C)C,inactive

row,Structure (SMILES),Potency
1,Cc1ccc(-c2ccc(=O)n(Cc3cc(C)ccc3C)n2)cc1,"inconclusive: 31.6 µM [inhibitor, single point]"
2,CC1=Nc2cc(C(=O)NCCc3ccc(Cl)cc3)ccc2Sc2ccc(C)cc21,"inconclusive: 10 µM [inhibitor, partial curve]"
3,CCN(c1cc(C)cc(C)c1)S(=O)(=O)c1nnc(NC(=O)c2cccs2)s1,inactive
4,Cc1oc2ccc(O)c(CN(C)Cc3ccccc3)c2c1C(=O)Nc1cccc(C(F)(F)F)c1,"inconclusive: 39.8 µM [inhibitor, single point]"
5,COc1cc(NC(=O)Cn2c(=O)oc3cc(S(=O)(=O)N4CCCCCC4)ccc32)cc(OC)c1,"inconclusive: 14.1 µM [inhibitor, partial curve, poor fit]"
6,O=C(CSc1nc(-c2ccccc2)no1)N1CCN(c2ccccc2F)CC1,inactive
7,Cc1cccc(C)c1Nc1sc(C(=O)c2ccccc2)c(N)c1C(=O)Nc1ccc(F)cc1,"inconclusive: 22.4 µM [inhibitor, partial curve, poor fit]"
8,CCCCC(Sc1nc2cc3c(cc2c(=O)n1CCCC(=O)NCc1ccc(OC)cc1)OCO3)C(=O)OCC (configuration not stated),"inconclusive: 7.08 µM [inhibitor, single point]"
9,COc1cccc(C(=O)N2c3cc(C)ccc3C(C)(c3ccccc3)CC2(C)C)c1 (configuration not stated),"inconclusive: 35.5 µM [inhibitor, partial curve, poor fit]"
10,O=C(O)CSc1c2c(nc3cc(C(=O)Nc4ccc(F)c(Cl)c4)ccc13)CCC2,"inconclusive: 15.8 µM [inhibitor, partial curve]"
11,Cn1nc(-c2ccc(C(=O)Nc3ccc(F)cc3)cc2)c2ccccc2c1=O,"inconclusive: 35.5 µM [inhibitor, single point]"
12,C=Cc1ccc(Cn2nc(-c3ccc(C)c(S(=O)(=O)N(CC)CC)c3)ccc2=O)cc1,"inconclusive: 39.8 µM [inhibitor, single point]"
13,COc1ccc2cc(-c3nc4ccc(C(=O)O)cc4[nH]3)c(=O)oc2c1,"inconclusive: 0.891 µM [inhibitor, full curve, poor fit]"
14,CC(C)c1ccc(S(=O)(=O)NCc2ccc3c(c2)CCN3C(=O)c2ccccc2)cc1,"inconclusive: 28.2 µM [inhibitor, single point]"
15,COc1ccc(Br)cc1C(=O)Nc1nc2ccc(F)cc2s1,inactive
16,O=c1c(S(=O)(=O)c2ccccc2)cn(Cc2ccccc2)c2cc(N3CCOCC3)c(F)cc12,"inconclusive: 39.8 µM [inhibitor, single point]"
17,COc1ccc(F)cc1S(=O)(=O)NCCc1sc2nc(-c3ccc(F)cc3)nn2c1C,"inconclusive: 39.8 µM [inhibitor, single point]"
18,CCc1cccc(C)c1NC(=O)CSc1nnc(CC)n2c1cc1occc12,"inconclusive: 25.1 µM [inhibitor, single point]"
